# Experimental data published in article PMC9911399, “Two distinct binding modes provide the RNA-binding protein RbFox with extraordinary sequence specificity”.
# Substitutions are numbered along the chain they refer to; changes in the protein carry UniProt numbers. The list shows a part of the results.
# T1: RBFOX1 RRM RbFoxmut (Fox-RRM*) (Homo sapiens, UniProt Q9NWB1 109-208, R118D;E147R;N151S;E152T)
# T1 sequence: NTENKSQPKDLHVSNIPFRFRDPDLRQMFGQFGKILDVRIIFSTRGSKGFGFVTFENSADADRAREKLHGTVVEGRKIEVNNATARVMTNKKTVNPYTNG
# B1: GCGGCGG (DNA:RNA)
# RNA: GGGAGACCGGAAUUCAGAUUGUCCGCGGCGGUUAAAUCCCGUCGUAGCCACCA
# DNA 1: CAATCTGAATTCCGGTCTCCC
# DNA 2: TGGTGGCTACGACGGGATT
# B2: AGGGCGU (DNA:RNA)
# RNA: B1 RNA with G25A, C26G, G31U
# DNA 1: CAATCTGAATTCCGGTCTCCC
# DNA 2: TGGTGGCTACGACGGGATT
# B3: GACACAC (DNA:RNA)
# RNA: B1 RNA with C26A, G27C, G28A, G30A, G31C
# DNA 1: CAATCTGAATTCCGGTCTCCC
# DNA 2: TGGTGGCTACGACGGGATT
# B4: AAUUCAG (DNA:RNA)
# RNA: B1 RNA with G25A, C26A, G27U, G28U, G30A
# DNA 1: CAATCTGAATTCCGGTCTCCC
# DNA 2: TGGTGGCTACGACGGGATT
# B5: UUAGUGG (DNA:RNA)
# RNA: B1 RNA with G25U, C26U, G27A, C29U
# DNA 1: CAATCTGAATTCCGGTCTCCC
# DNA 2: TGGTGGCTACGACGGGATT
# B6: UGGCUUG (DNA:RNA)
# RNA: B1 RNA with G25U, C26G, G28C, C29U, G30U
# DNA 1: CAATCTGAATTCCGGTCTCCC
# DNA 2: TGGTGGCTACGACGGGATT
# B7: UGAAGCC (DNA:RNA)
# RNA: GGGAGACCGGAAUUCAGAUUGUCCUGAAGCCUUAAAUCCCGUCGUAGCCACCA
# DNA 1: CAATCTGAATTCCGGTCTCCC
# DNA 2: TGGTGGCTACGACGGGATT
# B8: CUUCCUG (DNA:RNA)
# RNA: B1 RNA with G25C, C26U, G27U, G28C, G30U
# DNA 1: CAATCTGAATTCCGGTCTCCC
# DNA 2: TGGTGGCTACGACGGGATT
# B9: CAUAGCU (DNA:RNA)
# RNA: B7 RNA with U25C, G26A, A27U, C31U
# DNA 1: CAATCTGAATTCCGGTCTCCC
# DNA 2: TGGTGGCTACGACGGGATT
# B10: GCGCCUG (DNA:RNA)
# RNA: B1 RNA with G28C, G30U
# DNA 1: CAATCTGAATTCCGGTCTCCC
# DNA 2: TGGTGGCTACGACGGGATT
# B11: UUACAUC (DNA:RNA)
# RNA: B7 RNA with G26U, A28C, G29A, C30U
# DNA 1: CAATCTGAATTCCGGTCTCCC
# DNA 2: TGGTGGCTACGACGGGATT
# B12: UAAUCCG (DNA:RNA)
# RNA: B7 RNA with G26A, A28U, G29C, C31G
# DNA 1: CAATCTGAATTCCGGTCTCCC
# DNA 2: TGGTGGCTACGACGGGATT
# B13: CGCAUGA (DNA:RNA)
# RNA: B7 RNA with U25C, A27C, G29U, C30G, C31A
# DNA 1: CAATCTGAATTCCGGTCTCCC
# DNA 2: TGGTGGCTACGACGGGATT
# B14: UUCGGAU (DNA:RNA)
# RNA: B7 RNA with G26U, A27C, A28G, C30A, C31U
# DNA 1: CAATCTGAATTCCGGTCTCCC
# DNA 2: TGGTGGCTACGACGGGATT
# B15: UCCGAUA (DNA:RNA)
# RNA: B1 RNA with G25U, G27C, C29A, G30U, G31A
# DNA 1: CAATCTGAATTCCGGTCTCCC
# DNA 2: TGGTGGCTACGACGGGATT
# B16: UCAAUAA (DNA:RNA)
# RNA: B7 RNA with G26C, G29U, C30A, C31A
# DNA 1: CAATCTGAATTCCGGTCTCCC
# DNA 2: TGGTGGCTACGACGGGATT
# B17: CUGCCUG (DNA:RNA)
# RNA: B1 RNA with G25C, C26U, G28C, G30U
# DNA 1: CAATCTGAATTCCGGTCTCCC
# DNA 2: TGGTGGCTACGACGGGATT
# B18: AUGCUGC (DNA:RNA)
# RNA: B1 RNA with G25A, C26U, G28C, C29U, G31C
# DNA 1: CAATCTGAATTCCGGTCTCCC
# DNA 2: TGGTGGCTACGACGGGATT
# B19: GAUUAUG (DNA:RNA)
# RNA: B1 RNA with C26A, G27U, G28U, C29A, G30U
# DNA 1: CAATCTGAATTCCGGTCTCCC
# DNA 2: TGGTGGCTACGACGGGATT
# B20: UCGGUAA (DNA:RNA)
# RNA: B1 RNA with G25U, C29U, G30A, G31A
# DNA 1: CAATCTGAATTCCGGTCTCCC
# DNA 2: TGGTGGCTACGACGGGATT
# B21: CGACUAA (DNA:RNA)
# RNA: B7 RNA with U25C, A28C, G29U, C30A, C31A
# DNA 1: CAATCTGAATTCCGGTCTCCC
# DNA 2: TGGTGGCTACGACGGGATT
# B22: UGUCCUG (DNA:RNA)
# RNA: B1 RNA with G25U, C26G, G27U, G28C, G30U
# DNA 1: CAATCTGAATTCCGGTCTCCC
# DNA 2: TGGTGGCTACGACGGGATT
# B23: GACUUCU (DNA:RNA)
# RNA: B1 RNA with C26A, G27C, G28U, C29U, G30C, G31U
# DNA 1: CAATCTGAATTCCGGTCTCCC
# DNA 2: TGGTGGCTACGACGGGATT
# B24: GCUGACA (DNA:RNA)
# RNA: B1 RNA with G27U, C29A, G30C, G31A
# DNA 1: CAATCTGAATTCCGGTCTCCC
# DNA 2: TGGTGGCTACGACGGGATT
# B25: ACCCAGC (DNA:RNA)
# RNA: B1 RNA with G25A, G27C, G28C, C29A, G31C
# DNA 1: CAATCTGAATTCCGGTCTCCC
# DNA 2: TGGTGGCTACGACGGGATT
# B26: GACGCUC (DNA:RNA)
# RNA: B1 RNA with C26A, G27C, G30U, G31C
# DNA 1: CAATCTGAATTCCGGTCTCCC
# DNA 2: TGGTGGCTACGACGGGATT
# B27: UGGGAGG (DNA:RNA)
# RNA: B1 RNA with G25U, C26G, C29A
# DNA 1: CAATCTGAATTCCGGTCTCCC
# DNA 2: TGGTGGCTACGACGGGATT
# B28: AUUAUCG (DNA:RNA)
# RNA: B7 RNA with U25A, G26U, A27U, G29U, C31G
# DNA 1: CAATCTGAATTCCGGTCTCCC
# DNA 2: TGGTGGCTACGACGGGATT
# B29: AAACCUU (DNA:RNA)
# RNA: B1 RNA with G25A, C26A, G27A, G28C, G30U, G31U
# DNA 1: CAATCTGAATTCCGGTCTCCC
# DNA 2: TGGTGGCTACGACGGGATT
# B30: CCAGCGG (DNA:RNA)
# RNA: B1 RNA with G25C, G27A
# DNA 1: CAATCTGAATTCCGGTCTCCC
# DNA 2: TGGTGGCTACGACGGGATT
# B31: CAGGGUC (DNA:RNA)
# RNA: B1 RNA with G25C, C26A, C29G, G30U, G31C
# DNA 1: CAATCTGAATTCCGGTCTCCC
# DNA 2: TGGTGGCTACGACGGGATT
# Target: T1, RBFOX1 RRM RbFoxmut (Fox-RRM*)
# Assay: EMSA; HiTS-Eq, 1 nM pool, 10 min; buffer printed only for the single-RNA assays: 10 mM Tris pH 7.5, 150 mM NaCl, 3.4 mM EDTA, 0.001% NP-40, 30 C
# Conditions: tags: His6 N-terminal (pET28a); label: 5' 32P
# In short: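 Purified RbFox RRM, wild type or mutant, was incubated for 10 min in 50 µL with 1 nM of a 5′-radiolabelled RNA pool carrying 7 randomized nucleotides, whose flanks were annealed to DNA oligonucleotides, over a series of increasing protein concentrations. Unbound RNA was resolved on 8% native PAGE, cut out, reverse-transcribed, barcoded by PCR and sequenced on an Illumina HiSeq 2500. Relative association constants were derived from changes in read counts for each RNA species versus the control reaction and normalised to the cognate motif.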
row,Binder,binding signal
1,B1,0.0982 KA relative to UGCAUGU
2,B2,0.118 KA relative to UGCAUGU
3,B3,0.0614 KA relative to UGCAUGU
4,B4,0.141 KA relative to UGCAUGU
5,B5,0.0929 KA relative to UGCAUGU
6,B6,0.92 KA relative to UGCAUGU
7,B7,0.0899 KA relative to UGCAUGU
8,B8,0.0773 KA relative to UGCAUGU
9,B9,0.114 KA relative to UGCAUGU
10,B10,0.148 KA relative to UGCAUGU
11,B11,0.0518 KA relative to UGCAUGU
12,B12,0.0523 KA relative to UGCAUGU
13,B13,0.871 KA relative to UGCAUGU
14,B14,0.0575 KA relative to UGCAUGU
15,B15,0.0878 KA relative to UGCAUGU
16,B16,0.0835 KA relative to UGCAUGU

row,Binder,binding signal
1,B17,0.247 KA relative to UGCAUGU
2,B18,0.126 KA relative to UGCAUGU
3,B19,0.146 KA relative to UGCAUGU
4,B20,0.133 KA relative to UGCAUGU
5,B21,0.0856 KA relative to UGCAUGU
6,B22,0.133 KA relative to UGCAUGU
7,B23,0.0606 KA relative to UGCAUGU
8,B24,0.071 KA relative to UGCAUGU
9,B25,0.107 KA relative to UGCAUGU
10,B26,0.0618 KA relative to UGCAUGU
11,B27,0.106 KA relative to UGCAUGU
12,B28,0.129 KA relative to UGCAUGU
13,B29,0.0712 KA relative to UGCAUGU
14,B30,0.0846 KA relative to UGCAUGU
15,B31,0.146 KA relative to UGCAUGU
